Measurements: the supplement of paper PMC11417369
Some of the results follow.

Test system: PfAP2-HC AP2 domain (GST-tagged)
Assay: gcPBM binding intensity (ln(normalized median fluorescence intensity)); higher = stronger DNA binding
Procedure, shortened: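 Using an Agilent 4 × 180k array, primer-extended double-stranded 36-bp intergenic genomic probes and negative controls were exposed for 1 h to GST-fused P. falciparum DNA-binding domains expressed in E. coli. Binding was carried out in 1× PBS with 1% milk, 0.2 mg/ml BSA, 0.5% salmon testes DNA and 0.03% Triton X-100, and protein was detected with Alexa488 anti-GST antibody and a 488 nm scan. Binding intensity is the highest Masliner-normalised natural-log median intensity across replicate spots of either probe orientation.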

| Sequence | gcPBM binding intensity (ln) |
| --- | --- |
| ATATTATTATAATATACATATATATATATAATATAT [CACACA_negctrl_site480] | 9.57 |
| ACCTAAAAGGTATAATATATAAATAAAAAAAAAAAT [CACACA_negctrl_site134] | 9.72 |
| AAAATGAACAGACACACACACATATTTATATTTATA [CACACA_site7182] | 10.3 |
| TATTAATCTAATTCATAAAAAATGATCTATTTTGTT [CACACA_negctrl_site1035] | 9.42 |
| AACATTTGATAAGATACACACACAAGGAAAAAAATA [CACACA_site8004] | 10.6 |
| TAGAATAATCTATAAACACACAAACACAACAAAAGA [CACACA_site7861] | 10.8 |
| TTTTTTTCTTTATTAGCACACATAATATTATATATG [CACACA_site8841] | 9.79 |
| TATATCATTATATAAACACACAATATGTTTTTTATA [CACACA_site3781] | 9.64 |
| TATAGGTATATATAAGTGCAATATATATGTATATAC [GTGCAC_site9427] | 9.82 |
| GAAAAGCAGATAAATGTGCACATATATGTTTGTATA | 9.86 |
| TATTATTTTTTAAATTGTACAATAAATTATAAAAGG [XGTACX_site1162] | 9.24 |
| ACATAAAATTGTTAAAAAATTGTATAAATAATACAT [XGTACX_negctrl_site557] | 9.54 |
| CAGCTCTTAAAAATTACACACATATACTCATATATA [CACACA_site5757] | 9.78 |
| AGATATTTTATAATTACACACATGAGGTTATTTGAA [CACACA_site1999] | 9.6 |
| TTATAAAAATAATATCGTACAAATGACATAGATGAA [XGTACX_site2570] | 9.8 |
| CATATACATAAACACACACACACATAAATAAATATA [CACACA_site4864] | 10.6 |
| GTGTTTTTTTTAGATTGTACATATATATATATATAT [XGTACX_site4562] | 9.87 |
| TTTTGTAATTCTCTTCATATAATTTATATATATATA [CACACA_negctrl_site1825] | 9.61 |
| ACCCAACATATGTGTACACAGAAAATAAATATAATA [CACACA_site5901] | 9.78 |
| ATGTATGTATAATATACACACTCACAAGCATTCAAA [CACACA_site4306] | 9.94 |
| GTATATATTCATATGGAAAATAAAGGAGAAAACAAG [TGCATGCA_negctrl_site220] | 9.79 |
| TTTGTTTTTTCTTTTTGTACATATACAAGATACGTA [XGTACX_site2309] | 9.53 |

| Sequence | gcPBM binding intensity (ln) |
| --- | --- |
| TAAGTGCATGAGATATGTACATATATAAAATATATA [XGTACX_site3294] | 9.95 |
| AATAAAAACTAAACATGTACGCACATATATATATAT [XGTACX_site8096] | 9.8 |
| TAAAAAAAAAAAAATACACACACACCGATATATATA [CACACA_site8498] | 10.7 |
| TCATAGTCTTAATGACTACACACCTAACTATGCATG [CACACA_site1839] | 9.75 |
| ATGGTAGTGATTAAAAGTACACGTAATTGTAAAAAT [XGTACX_site387] | 9.86 |
| ATATATATACATACATACCTATGTATATGTGTAATT [GTGCAC_negctrl_site50] | 9.69 |
| TAAACAACTTATAAATGTACACATATTTTAATTACC [XGTACX_site5409] | 9.6 |
| ATAAACATATCAATATGTACATATTTTTGTTTGTAT [XGTACX_site7018] | 9.77 |
| AAACCACAAAATTTTTTATATATGACCAATACATAG [CACACA_negctrl_site277] | 9.57 |
| ATTTATCAATAAAATGCACACACTGTAATATTATTA [CACACA_site3976] | 9.85 |
| TTATAATAGTTAAATGTACACACTAACTACATGGAA [CACACA_site9070] | 9.72 |
| ATTTGTTACACTAAATGTACATACATACATATATAT [XGTACX_site6175] | 10 |
| TTATAAATTATAGGTACACACAAAAAAAAAAAGAAA [CACACA_site1327] | 9.88 |
| ATATATATGTATGTATGTACATATTTGAATTTATTT [XGTACX_site8470] | 9.9 |
| AGCACAGACGGACACACACACATATATATATATATA [CACACA_site4341] | 10.8 |
| TTCCATATAATTACATGTACACATTTTGAATAATAT [XGTACX_site3692] | 9.82 |
| AAAAAAAAAAGAAACACACACATTTGTATTTAATAT [CACACA_site5184] | 10.2 |
| GTGATTTAATTGTGTTGTACATATTTATAAATAAAA [XGTACX_site8966] | 9.41 |
| GTACAGATAAATATTACACACATTTTCATTTTTAAC [CACACA_site5140] | 9.8 |
| TTGTTCTTTTTTTTTTTATTTTTTAATTTGAAAAGA [CACACA_negctrl_site209] | 9.37 |
| AAAAAGAAAAAACGAAGTACAATTATAAGATTATAT [XGTACX_site410] | 9.72 |
| TATGTGCCAAGACACACACACATATTTATATTTATA [CACACA_site6360] | 10.2 |

| Sequence | gcPBM binding intensity (ln) |
| --- | --- |
| TATGAAAAATATCTTTGTACTTAGAAATATATACAC [XGTACX_site5393] | 9.54 |
| TTATTATTATATGAATGTACTTAAAAATACATTTTG [XGTACX_site2959] | 9.52 |
| ATTCTATATACACGCACACACACTTATATATATATA [CACACA_site3322] | 10.6 |
| CCCTTTTCTAAATATTGTACGTATAAATTATATTAC [XGTACX_site7676] | 9.74 |
| AGAGATTATAAAATATGTACTAAATATTAAATCTTA [XGTACX_site7050] | 9.53 |
| AAAAAAATATTATAATATATATATATATATATATAT [GTGCAC_negctrl_site399] | 9.39 |
| AAAGTAAAAATATACTGTACAAATTTTTTCCCCTCT [XGTACX_site171] | 9.61 |
| AAAGAAAGCACATACACACACAAAAAAAAAAAAGAA [CACACA_site776] | 10.8 |
| ATTTTTTAAAAAGTAACACACACTCTTATAAATAAC [CACACA_site7668] | 9.89 |
| ATATTTATATACAAATGTACGCATATAATATATATA [XGTACX_site1232] | 9.56 |
| AAACAAAAAAAAAAAAAAAAAAAAAAAAAAAAAAAA [GTGCAC_negctrl_site254] | 8.8 |
| GATGCACTTTAAAAATGTACTTATACCTTTAATTGT [XGTACX_site6395] | 9.66 |
| ATAACGACCTAGACGTGTACATACAAAGGAATGAAA [XGTACX_site4870] | 10.1 |
| CATACACATAGACACACACACATATATACCTATATA [CACACA_site6644] | 10.8 |
| GAAATGTATATTTTTACATGCAAATAAAATATATAA [TGCATGCA_site439] | 9.47 |
| ACACAATATATATATTGTACATACACATATTTACTA [XGTACX_site1872] | 9.78 |
| TTTTTCTTGAATCGAAGTACTTAGGAGGGGATATTT [XGTACX_site2862] | 9.83 |
| GAATATAAACATATTACACACATCTATAGGTACATT [CACACA_site6983] | 10.1 |
| ATAGAATCTGGTAGCTGTACGAGTCGTAGAGTGCAG [XGTACX_site2026] | 9.72 |
| AATATATACATATATGTACACACATTACAGATGTAC [CACACA_site8227] | 10 |
| AGGACTAATATTTGAACACACATATAATATATACAT [CACACA_site3998] | 9.88 |
| AGTATATAAAATACTGTATCGATGGGGGAGGGCGCA [CACACA_negctrl_site1612] | 9.91 |

| Sequence | gcPBM binding intensity (ln) |
| --- | --- |
| ACAAATAAATAAAAAACACACACAAATAAATAAATA [CACACA_site8708] | 10.6 |
| TAATAATAAAATATTTGTACATATAAAATATGGCTG [XGTACX_site7904] | 9.61 |
| AATATAATGCAATATACACACATATATTTCTCTTTT [CACACA_site7276] | 9.94 |
| TATAAAAAATAATTATCATGAAATATATGATCATCA [TGCATGCA_negctrl_site137] | 9.4 |
| ATTATTATTTATATGATACACACGTACATATACGCA [CACACA_site3823] | 9.79 |
| TTAAAAAAAATATAATGTACTTGTAGAATTATATTT [XGTACX_site6220] | 9.42 |
| TATATTTTTTATAAATGTACATGGATAGGCATAAAC [XGTACX_site8401] | 9.75 |
| TCAAAAATGAGTTACACACACACATATATATATATA [CACACA_site2229] | 10.6 |
| ATATGAATAAATAAAAGTACATACATAATGTATTAT [XGTACX_site5969] | 9.83 |
| ATATATTTATGTATCACACACAAAAAAAAAAAATAA [CACACA_site255] | 10.4 |
| AATTTTTTTCTCCAAGTGCATTAGAACATTAACGTA [GTGCAC_site9413] | 9.3 |
| AATTATTGTGAAGGGAAAACAAAAAAGTTTATAATT [CACACA_negctrl_site1337] | 9.64 |
| AACTAATAAAAAAAAAGTACACAATATGTAAATAAC [XGTACX_site5263] | 9.97 |
| AAGCGAATATATATCACACACAAAAAAATCAGACTA [CACACA_site2108] | 9.94 |
| AACAAATATATTAACACACAAACATATAAACCAATG [CACACA_site3970] | 10.2 |
| TATATATTATATATATGTACATACTTTTTACGTTCA [XGTACX_site2493] | 9.85 |
| AAATTAATTAAATATACACACATATATAGATATATA [CACACA_site6321] | 9.74 |
| ACCACATTTTTTTTTGCATGTTGTTTAAAAAAAGGC [TGCATGCA_site137] | 9.43 |
| AGTATAAGCATTATTGTGCACATAATTATAATTTTT | 9.78 |
| AGTTTAAATTAAATTACACACTACGAATAATATATT [CACACA_site7811] | 9.6 |
| GTTGCAATTAACACTAGTACATATAAGTAGTTTATT [XGTACX_site2063] | 9.66 |
| ATTGTTCTCCAAAAGTGTACGTATTATTTTTCTGGA [XGTACX_site1404] | 9.6 |
